# Source: PMC4336329 (PLoS ONE, 2015)
# The whole screen tested about 310,000 compounds, of which about 2,200 (0.71%) showed an effect of 50% or more. Effects have a minus sign here. Some of the results follow.
# Target: human ether-à-go-go-related gene (hERG) potassium channel (human, UniProt Q12809)
# Experiment: primary screen, population patch clamp on CHO cells stably expressing hERG
# Chain of human ether-à-go-go-related gene (hERG) potassium channel (Q12809 whole entry, looked up): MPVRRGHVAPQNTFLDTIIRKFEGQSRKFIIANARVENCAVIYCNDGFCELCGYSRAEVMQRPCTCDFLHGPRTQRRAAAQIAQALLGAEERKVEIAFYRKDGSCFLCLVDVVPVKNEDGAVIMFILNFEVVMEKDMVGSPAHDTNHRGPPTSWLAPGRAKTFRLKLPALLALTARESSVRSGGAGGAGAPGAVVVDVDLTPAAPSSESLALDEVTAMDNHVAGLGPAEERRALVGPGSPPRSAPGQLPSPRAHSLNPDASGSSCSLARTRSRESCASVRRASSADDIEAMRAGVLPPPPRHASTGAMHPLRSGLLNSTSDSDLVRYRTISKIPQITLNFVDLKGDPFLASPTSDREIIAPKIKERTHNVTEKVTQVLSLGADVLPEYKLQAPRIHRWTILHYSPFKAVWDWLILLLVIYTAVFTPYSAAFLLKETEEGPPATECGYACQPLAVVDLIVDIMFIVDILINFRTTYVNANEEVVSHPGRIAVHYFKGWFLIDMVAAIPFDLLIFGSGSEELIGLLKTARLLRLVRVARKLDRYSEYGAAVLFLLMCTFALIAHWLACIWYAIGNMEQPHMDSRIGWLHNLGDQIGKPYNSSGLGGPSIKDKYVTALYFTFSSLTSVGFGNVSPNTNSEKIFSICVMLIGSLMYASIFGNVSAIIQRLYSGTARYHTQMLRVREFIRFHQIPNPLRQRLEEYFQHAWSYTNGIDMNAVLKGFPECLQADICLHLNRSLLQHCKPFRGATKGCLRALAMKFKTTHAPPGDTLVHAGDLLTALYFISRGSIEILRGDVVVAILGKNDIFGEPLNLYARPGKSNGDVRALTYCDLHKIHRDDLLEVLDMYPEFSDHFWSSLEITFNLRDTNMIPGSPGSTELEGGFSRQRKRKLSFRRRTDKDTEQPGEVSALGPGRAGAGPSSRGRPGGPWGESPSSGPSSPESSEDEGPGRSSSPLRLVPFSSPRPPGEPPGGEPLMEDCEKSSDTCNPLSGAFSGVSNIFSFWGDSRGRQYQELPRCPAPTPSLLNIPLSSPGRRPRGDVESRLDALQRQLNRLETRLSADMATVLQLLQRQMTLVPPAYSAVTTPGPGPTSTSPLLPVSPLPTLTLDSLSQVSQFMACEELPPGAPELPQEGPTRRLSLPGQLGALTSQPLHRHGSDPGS
row,SMILES,"hERG current change (%, negative = inhibition) at 1uM"
1,Cl.O=C1NCC2(CCN(CCc3ccccc3)CC2)O1,17%
2,COc1cc2c(cc1OC)CN(C(=O)c1ccc(S(=O)(=O)N(C)c3ccccc3)cc1)CC2,3.47%
3,O=C(Cn1nnc(-c2ccccc2-n2cnnn2)n1)N1CCCCC1,9.93%
4,COc1cccc(C(=O)NCCCn2ccnc2)c1,9.03%
5,COc1ccc(/C=N/NC(=O)CC(=O)N/N=C/c2ccc(OC)cc2)cc1,4.74%
6,CCCC1(C)NC(=O)c2ccccc2O1 (stereo not shown),17.8%
7,Cc1ccc(C(=O)N/N=C/c2ccc(-c3ccccc3[N+](=O)[O-])o2)cn1,2.39%
8,Cc1ccc2c(c1)C(c1ccncc1)=NNC(c1ccc(F)cc1)=N2,2.66%
9,CCN(c1ccccc1)S(=O)(=O)c1cc2c3c(c1)C(C)C(=O)N3CCC2 (stereo not shown),7.24%
10,CCOC(=O)CNC(=O)N1CCCC(C(=O)c2ccc3c(c2)OCO3)C1 (stereo not shown),0.803%
11,O=S(=O)(NCC1CCCO1)c1ccc(Br)cc1 (stereo not shown),10.7%
12,Cc1ccc(S(=O)(=O)N2CCOCC2)cc1NC(=O)CNCC1CCCCC1.O=C(O)C(=O)O,8.34%
13,CC(C)OCCCn1c(SC(C)C(=O)NCC2CCCO2)nc2cc(Cl)ccc2c1=O (stereo not shown),7.81%
14,Cc1ccc(NC(=O)CSc2ccc(-c3ccccn3)nn2)c(C)c1,14.1%
15,CC1(C)Cc2c(sc3ncnc(NN)c23)CO1,7.21%
16,CSc1ncc(CN2CCCC(C(=O)c3cccc(Cl)c3)C2)cn1 (stereo not shown),2.26%
17,Cc1nn(-c2ccc(N3CCOCC3)nn2)c(C)c1CCC(=O)Nc1ccc(F)cc1,14.4%
18,CC1CC(OC(=O)c2ccccc2)(c2ccccc2)C(C)CN1C (stereo not shown),10.3%
19,CCOC(=O)c1c(NC(=O)c2ccoc2C)sc2c1CCC2,14.2%
20,FC(F)(F)c1cccc(Cn2c3[n+](c4ccc(C(F)(F)F)cc42)CCCCC3)c1.[Cl-],5.94%

row,SMILES,"hERG current change (%, negative = inhibition) at 1uM"
1,OC(COc1ccc2cc(Br)ccc2c1)CN1CCN(c2ccccn2)CC1 (stereo not shown),11.4%
2,OC(C#CCCN1CCCCC1)(c1ccccc1)C1CCCCC1 (stereo not shown),-1.95%
3,CCn1c(N2CCN(C(=S)Nc3ccc(OC)cc3)CC2)nc2ccccc21,-44.4%
4,COc1ccc(C2NC(=O)c3ccccc3O2)c(OC)c1OC (stereo not shown),10.6%
5,COC(=O)C1=C(O)/C(=C\c2ccc(CNC(=O)C(=O)Nc3ccc(C)cc3)o2)N=C1C,14.2%
6,O=C(NCc1ccco1)c1cccc(NC(=O)c2ccco2)c1,2.19%
7,Cc1cc(C)cc(NC(=S)N2CCC(N(C)CC3CCCO3)CC2)c1 (stereo not shown),-1.85%
8,O=C(c1cc2cc(Br)ccc2s1)N1CCOCC1,-0.609%
9,Cc1[nH]n(-c2ccccc2)c(=O)c1/C=N/N1C(=O)c2cccc3cccc(c23)C1=O,9.42%
10,CC(=O)Nc1ccc(S(=O)(=O)Nn2cnnc2)cc1,13%
11,COc1ccc(N=Cc2c(O)n(Cc3cccs3)c(=O)[nH]c2=O)cc1,-5.69%
12,CSc1ccc(CN2CCCC(N3CCN(c4ccccc4)CC3)C2)cc1 (stereo not shown),-8.99%
13,O=S(=O)(c1ccccc1)N1CCN(Cc2ccc(Cl)cc2)CC1,-2.04%
14,CCc1ccccc1NC(=S)N1CCN(c2cccc(OC)c2)CC1,11.7%
15,Cc1nc2cc(NCc3ccccc3O)ccc2n1Cc1ccccc1,7.78%
16,CCOc1ccccc1NC(=O)CCNC(=O)c1ccc(Cl)cc1,35.4%
17,C=CCn1c(=O)n2ncnc2c2c3c(sc21)CCCC3,-12.9%
18,O=S(=O)(c1cc(Cl)ccc1Cl)n1nnc2ccccc21,8.76%
19,O=C(c1ccc(F)cc1)C1CCN(C(=S)Nc2ccccc2Cl)CC1,11.7%
20,CC(=O)Nc1cccc(NC(=O)CSc2nccn2Cc2ccco2)c1,5.74%

row,SMILES,"hERG current change (%, negative = inhibition) at 1uM"
1,NC(=O)C1CCCN1S(=O)(=O)c1ccc2ccccc2c1 (stereo not shown),-10.9%
2,O=C(NCCN1CCOCC1)c1csc2c1CCCC2,2.22%
3,Cc1ccc(-n2nnnc2SCC(=O)NC2CC2)cc1C,-4.87%
4,CC1CCCCC1NC(=O)c1ccc(S(=O)(=O)NCC2CCCO2)cc1 (stereo not shown),2.62%
5,N#Cc1ccc(OCC(=O)N2CCN(S(=O)(=O)c3cccc(Cl)c3)CC2)cc1,-26.9%
6,CN(C)c1ccc(NC(=O)N2CCOCC2)cc1,1.64%
7,O=C(CCN1CCN(C/C=C/c2ccccc2)CC1)Nc1ccc(Cl)cc1,-74.1%
8,Cn1c(=O)c2c(ncn2CC(=O)N2CCCc3ccccc32)n(C)c1=O,6.04%
9,CC(C)COC(=O)N(C)c1ccc(C(O)(C(F)(F)F)C(F)(F)F)cc1,7.88%
10,CCOC(=O)c1ccc(NC(=O)COC)cc1,-1.6%
11,Cc1ccc(S(=O)(=O)Nc2cccc(-c3ccc(N4CCCCCC4)nn3)c2)c(C)c1,11.5%
12,Brc1ccc2[nH]c3c(NCc4ccccn4)ncnc3c2c1,14.6%
13,CCOc1ccccc1NC(=O)CCNS(=O)(=O)c1cccc2nonc12,18%
14,CC1(C)CC2(CC(c3ccc(F)cc3)c3ccc(O)cc3O2)NC(=S)N1 (stereo not shown),9.88%
15,CC(C)CN1CCN(Cc2ccc(C(F)(F)F)cc2)CC1CCO (stereo not shown),-30.9%
16,CCOC(=O)Nc1ccc(NCc2ccc(F)cc2)nc1N.O=C([O-])/C=C\C(=O)[O-],1.83%
17,Cc1ccc(S(=O)(=O)NCCC(=O)Nc2ccc(Cl)c(Cl)c2)cc1C,15.3%
18,S=C(NCCc1ccccc1)NC1CC2CCC(C1)N2Cc1ccccc1 (stereo not shown),11.6%
